For assay [1], the target named is recombinant human CD3 protein (human). Briefly: ELISA, human CD3 protein coated. (In general: ELISA stands for enzyme-linked immunosorbent assay.)
In assay [2] the target is cell-surface mesothelin (on mesothelin-transfected HEK293, H226, N87 and LS174T-MSLN(2B6) cells) (human, UniProt Q13421 296-598). The experiment in a line: cell-based or functional assay.
Assay [3] addresses T1, recombinant human mesothelin (full-length extracellular domain) (human, UniProt Q13421 296-580, limits assumed).
T1 construct: extracellular domain; Bought protein coated on ELISA plates at 50 ng per well; also called 重组人间皮素; 人间皮素(MSLN)蛋白
The experiment in a line: ELISA, human mesothelin coated.

As usually defined, the EC50 is the concentration at which the effect is half-maximal.

B1: CMD007 (M10-based MSLN×CD3 HBiTE) (bispecific antibody)
light: SYVLTQPPSVSVSPGQTARITCSGDALPKQYAFWYQQKPGQAPVLVIYKDSERPSGIPERFSGSSSGTTVTLTISGVQAEDEADYYCQSADSSATSVIFGGGTKLTVLGGGGSGGGGSGGGGSEIVVTQSPATLSVSPGERATLSCRSSTGAVTTSNYANWVQQKPGQAPRGLIGGANKRAPGVPARFSGSLSGDEATLTISSLQSEDFAVYYCALWYSNLWVFGQGTKLEIKRTVAAPSVFIFPPSDEQLKSGTASVVCLLNNFYPREAKVQWKVDNALQSGNSQESVTEQDSKDSTYSLSSTLTLSKADYEKHKVYACEVTHQGLSSPVTKSFNRGE[gap - human IgG1 Fc with T366L Y407H (EU numbers)]
heavy: QLVETGGGLVQPGRSLRLSCAASGFTFDDYAMHWVRQAPGKGLEWVSGISWNSGSIGYADSVKGRFTISRDNAKNSLYLQMNSLRAEDTAVYYCARDSGSSGWYGYFQHWGQGTLVTVSSGSSGGGGSGGGGSEVQLVESGGGLVQPGGSLRLSCAASGFTFNTYAMNWVRQAPGKGLEWVARIRSKYNNYATYYADSVKGRFTISRDDSKNTLYLQMNSLRAEDTAVYYCARHGNFGSSYVSYFAYWGQGTTVTVSSASTKGPSVFPLAPSSKSTSGGTAALGCLVKDYFPEPVTVSWNSGALTSGVHTFPAVLQSSGLYSLSSVVTVPSSSLGTQTYICNVNHKPSNTKVDKKVEPKS[gap - human IgG1 Fc with T366L Y407H (EU numbers)]
notes: Heterodimer of one light and one heavy chain, about 120 kDa non-reduced; also called 基于M10的MSLN×CD3 HBiTE; 靶向间皮素和CD3的双特异性抗体
Consider B1, for which the EC50 in assay [1] was found to be 12.1 nM. For the same molecule, in assay [2], the “EC50 of killing of H226 cells with human PBMC (CCK8, target:effector 1:10)” value was found to be 0.812 ng/mL; the “EC50 of killing of LS174T-MSLN(2B6) cells with human PBMC (CCK8, target:effector 1:5)” value worked out at 1.69 ng/mL; the “EC50 of killing of N87 cells with human PBMC (CCK8, target:effector 1:10)” value came out at 1.38 ng/mL. Moreover, the EC50 in assay [3] turned out to be 8.3 nM.
